Reference: the supplement of paper PMC12217912
This is one part of the list. Sequences were assembled here from the parent chain. Values near 0.05 are background.

B1: TEV protease; numbered along this chain (parent)
chain: MGESLFKGPRDYNPISSSICHLTNESDGHTTSLYGIGFGPFIITNKHLFRRNNGTLVVQSLHGVFKVKDTTTLQQHLVDGRDMIIIRMPKDFPPFPQKLKFREPQREERICLVTTNFQTKSMSSMVSDTSCTFPSGDGIFWKHWIQTKDGQCGSPLVSTRDGFIVGIHSASNFTNTNNYFTSVPKNFMELLTNQEAQQWVSGWRLNADSVLWGGHKVFMVKPEEPFQPVKEATQL

Variants of: B1
Experiment: raw area under fraction-flipped curve 0-4 h after induction (AUC4h, not background-subtracted), DNA-recorder readout of cleavage of the substrate (dimensionless); higher = more cleavage of the substrate by the protease variant
Settings: temperature: 34 °C; time window: 0-4 h after rhamnose induction
Description: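 In vivo DNA recorder in E. coli TOP10(DE3) ΔrhaA at 34 °C. Each TEVp single-site mutant (parent TEVp 0) is paired with a single-site variant of the 7-mer TEVs (canonical ENLYFQ|S). The substrate sits between flexible linkers in a Bxb1-sfGFP-TEVs-SsrA fusion, so cleavage stabilises Bxb1 and speeds flipping of a recombination array, read by NGS. The value is the raw area under the fraction-flipped curve over 0-4 h after rhamnose induction (AUC4h), with ≥20 reads per time point. It is not background-subtracted; inactive controls average about 0.047.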
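Further: Bxb1 expression induced with 0.2% (w/v) L-rhamnose at OD600 near 0.5, cultures sampled hourly, flipped fraction per protease–substrate barcode pair counted by paired-end Illumina sequencing.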

| Variant | area with substrate ENLYFQA | area with substrate ENLYFQC | area with substrate ENLYFQD | area with substrate ENLYFQH | area with substrate ENLYFQI | area with substrate ENLYFQK | area with substrate ENLYFQL | area with substrate ENLYFQM | area with substrate ENLYFQN | area with substrate ENLYFQS | area with substrate ENLYFQT | area with substrate ENLYFQV | area with substrate ENLYFQW | area with substrate ENLYFQY | area with substrate ENLYFQG | area with substrate ENLYFQP | area with substrate ENLYFQR | area with substrate ENLYFQE | area with substrate ENLYFQQ | area with substrate ENLYFQF |
| --- | --- | --- | --- | --- | --- | --- | --- | --- | --- | --- | --- | --- | --- | --- | --- | --- | --- | --- | --- | --- |
| Q59F | 0.166 | 0.0355 | 0.0637 | 0.0414 | 0.057 | 0.058 | 0.0721 | 0.132 | 0.0705 | 0.104 | 0.0846 | 0.0448 | 0.0622 | 0.0764 |  |  |  |  |  |  |
| K46V | 0.058 |  |  | 0.0514 | 0.0459 |  | 0.0548 | 0.0107 | 0.0668 | 0.0751 | 0.0542 | 0.0635 | 0.0493 | 0.0465 | 0.0729 | 0.0539 | 0.0426 |  |  |  |
| K46I | 0.0449 | 0.0693 | 0.0581 | 0.064 | 0.0567 | 0.0473 | 0.0603 | 0.0622 | 0.0574 | 0.0673 | 0.063 | 0.0494 | 0.0527 | 0.0481 | 0.0687 | 0.0639 | 0.0616 | 0.0685 |  |  |
| K46W | 0.0558 | 0.058 | 0.0607 | 0.0557 | 0.0528 | 0.0545 | 0.0495 | 0.0574 | 0.0385 | 0.0587 | 0.063 | 0.0562 | 0.0406 | 0.0717 | 0.0561 | 0.0556 | 0.0677 |  | 0.0732 |  |
| S60R | 0.0976 | 0.105 |  | 0.0979 | 0.0671 |  | 0.0632 | 0.0771 | 0.0907 | 0.0944 |  | 0.0403 | 0.063 |  | 0.0903 |  | 0.0394 | 0.0658 |  |  |
| R50E | 0.0699 |  | 0.0583 | 0.0957 | 0.0579 | 0.0664 | 0.062 | 0.0711 | 0.0737 | 0.0983 | 0.0667 | 0.0563 | 0.0443 | 0.0846 | 0.0961 | 0.0645 | 0.0619 | 0.063 |  |  |
| L56E | 0.0469 | 0.0501 |  | 0.0346 | 0.0475 | 0.0301 | 0.056 | 0.0392 | 0.0373 | 0.0504 | 0.05 | 0.0413 | 0.0409 |  | 0.045 |  | 0.0409 |  |  |  |
| V67C | 0.0804 |  | 0.0577 | 0.0585 |  | 0.0607 | 0.0652 | 0.111 | 0.0705 | 0.105 | 0.0093 |  |  |  | 0.0953 | 0.0617 | 0.0572 |  |  |  |
| T71P | 0.107 | 0.104 |  |  |  |  | 0.0494 | 0.0885 |  | 0.0885 |  |  |  | 0.0645 | 0.101 |  | 0.0554 |  |  |  |
| F65M | 0.0805 | 0.102 | 0.0843 | 0.0884 | 0.064 | 0.0666 | 0.044 | 0.0844 | 0.076 | 0.0964 | 0.0607 | 0.0689 | 0.0648 |  |  | 0.0568 | 0.0628 |  |  |  |
| D69T | 0.0983 | 0.0917 | 0.0579 | 0.0743 | 0.067 |  | 0.0457 |  | 0.0646 | 0.089 | 0.0626 | 0.0632 | 0.0348 | 0.0669 | 0.0822 |  |  |  |  |  |
| H47M | 0.0622 | 0.0665 |  | 0.0426 |  |  | 0.0511 | 0.0524 | 0.0611 | 0.0594 | 0.0584 |  | 0.0346 | 0.0605 | 0.0656 |  | 0.0376 |  |  | 0.0669 |
| T70H | 0.0641 | 0.0631 |  | 0.072 | 0.0689 | 0.0705 | 0.0447 |  |  | 0.0729 | 0.0514 | 0.061 | 0.0534 | 0.0594 | 0.0622 |  |  | 0.0255 |  | 0.0709 |
| T70Q | 0.0492 |  | 0.059 | 0.075 |  |  |  |  |  | 0.0821 | 0.0556 | 0.0782 |  | 0.0607 | 0.0603 | 0.0712 | 0.0624 | 0.067 | 0.067 |  |
| H62S | 0.113 | 0.118 |  | 0.0754 | 0.0463 |  |  | 0.0828 | 0.0801 | 0.103 | 0.0542 | 0.0435 | 0.0731 |  | 0.0972 |  | 0.0581 | 0.0556 |  |  |
| H62W | 0.0789 | 0.0955 |  | 0.0908 | 0.0603 | 0.0639 |  | 0.1 | 0.0824 | 0.0972 | 0.0673 | 0.0691 | 0.0722 | 0.0771 |  | 0.0532 | 0.0602 |  | 0.0711 |  |
| G54S | 0.0694 | 0.0769 |  | 0.0618 | 0.0698 | 0.0568 | 0.0576 | 0.0726 | 0.114 | 0.0741 |  | 0.0524 | 0.0598 | 0.0725 | 0.0872 | 0.0645 | 0.0586 |  | 0.0489 | 0.0617 |
| N52D | 0.0663 |  |  | 0.0684 |  | 0.0613 | 0.0621 | 0.0675 | 0.0574 | 0.0759 | 0.0575 | 0.0683 | 0.0577 | 0.065 | 0.0561 | 0.0578 | 0.0414 |  |  | 0.0612 |
| L61E | 0.0973 | 0.167 | 0.0964 | 0.0899 | 0.0245 | 0.0678 | 0.0446 | 0.112 | 0.0746 | 0.0969 | 0.0648 | 0.0621 | 0.0665 | 0.0541 |  | 0.0325 | 0.066 |  |  |  |
| N45F | 0.0641 | 0.0666 |  | 0.0739 | 0.0552 | 0.0779 | 0.0626 | 0.0588 | 0.0548 | 0.0624 | 0.0611 |  | 0.059 | 0.0565 | 0.0655 |  |  |  | 0.0664 | 0.0636 |
| N45C | 0.0873 | 0.111 | 0.0699 |  | 0.0627 | 0.0687 | 0.061 | 0.0886 | 0.0654 | 0.112 | 0.0665 | 0.0652 | 0.059 | 0.0748 | 0.102 |  | 0.0637 | 0.0692 | 0.0674 |  |
| G63H | 0.0565 | 0.0974 | 0.0656 | 0.0809 | 0.068 |  | 0.0552 | 0.0891 | 0.0728 | 0.0977 | 0.0567 |  | 0.0556 |  | 0.0933 | 0.075 | 0.078 |  | 0.0738 |  |
| K68C | 0.107 |  | 0.0679 | 0.0635 | 0.0566 | 0.0599 | 0.0685 |  | 0.096 | 0.109 |  | 0.0595 |  | 0.0927 | 0.0828 | 0.0546 |  | 0.067 | 0.0697 | 0.0518 |
| K68V | 0.0942 | 0.105 | 0.0656 | 0.0568 |  | 0.0462 | 0.0747 | 0.13 | 0.0752 | 0.0976 | 0.086 |  | 0.0682 | 0.0755 |  |  | 0.0467 |  |  |  |
